Test results taken from PubChem BioAssay (NCATS).
Inconclusive results, whose numbers are uncertain, are shown with a selection of clear calls. For part of these data: No potency is given beside an inconclusive call; the fits are too rough. Activity calls are given as the source filed them. Calls follow the shape of the dose curve; as a rule, active = well fitted curve in the direction sought with a large enough effect; inconclusive = small, poorly fitted or top-dose-only effect, or another doubt; inactive = no such curve, though single readings can be large; an effect the other way counts as inactive or inconclusive.

Columns and labels:
[1] = qHTS for Inhibitors of the vitamin D receptor (VDR): Hit Validation using a Texas Red Assay (AID 602201); details: VDR coregulator binding, Texas Red fluorescence polarization, agonist-bound VDR ligand-binding domain; series mostly up to 57.1 µM; also: potency is read from the fitted curve at half-maximal effect
Outline: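 Fluorescence polarization with 1.5 uM VDR-LBD, LG19078 and 7 nM Texas Red (final). After 2 hours at ambient temperature, read at Ex 595 nm/Em 615 nm.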

[2] = molecular target: Vitamin D3 receptor (Homo sapiens) (UniProt P11473); test: qHTS for Inhibitors of the vitamin D receptor (VDR): Hit Validation using a Beta-Lactamase Assay (AID 602202); details: VDR beta-lactamase reporter cells, FRET ratio, cells co-treated with VDR agonist LG190178; series mostly up to 46.1 µM; also: potency is read from the fitted curve at half-maximal effect
UniProt P11473, sequence (P11473 whole entry, looked up, the tested form may be a part): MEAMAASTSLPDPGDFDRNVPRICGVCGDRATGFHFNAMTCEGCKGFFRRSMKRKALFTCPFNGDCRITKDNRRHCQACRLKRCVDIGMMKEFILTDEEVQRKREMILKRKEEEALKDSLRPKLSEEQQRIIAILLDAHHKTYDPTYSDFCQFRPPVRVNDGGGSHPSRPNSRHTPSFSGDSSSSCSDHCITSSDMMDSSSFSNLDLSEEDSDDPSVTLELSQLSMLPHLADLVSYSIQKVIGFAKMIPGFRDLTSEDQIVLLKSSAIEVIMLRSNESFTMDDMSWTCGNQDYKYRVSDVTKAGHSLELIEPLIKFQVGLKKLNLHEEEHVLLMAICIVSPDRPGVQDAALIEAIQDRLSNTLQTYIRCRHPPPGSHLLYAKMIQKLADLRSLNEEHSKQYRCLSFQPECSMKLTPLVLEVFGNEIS
Outline: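 Stably transfected HEK293 cells expressing VDR-GAL4 DNA-binding domain fusion with UAS-driven beta-lactamase reporter, activated by agonist LG190178; compounds incubated 18 h, then FRET beta-lactam substrate 2 h; cleaved substrate read at 447 nm emission.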

[3] = qHTS for Inhibitors of the vitamin D receptor (VDR): Hit Validation using a Cytotoxicity Assay (AID 602204); details: cytotoxicity counter-screen, cell viability; series mostly up to 48.3 µM; also: nearly all actives have a fitted effect of over 75% in size
Outline: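 First, 20,000 cells are dispensed per well. Next comes a 4 h incubation, then compound addition and an 18 h incubation. Finally, ATP-based luminescent reagent is added and plates are read after 30 min.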

[4] = qHTS for Inhibitors of WRN Helicase: Thiazole Orange DNA Binding Counterscreen (AID 720499); details: thiazole orange DNA binding displacement, fluorescence; series mostly up to 57.1 µM;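 also: drop in dye fluorescence marks compound binding to DNA; potency is read from the fitted curve at half-maximal effect; nearly all actives have a fitted effect of over 60% in size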
Outline: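 Thiazole orange displacement counterscreen: compounds added to 50 nM unlabeled DNA with 100 nM ThO. Fluorescence (ex 480, em 530 nm) read after 15 min at room temperature; activity flags nonspecific DNA binding.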

[5] = molecular target: Rap guanine nucleotide exchange factor 3 (Homo sapiens) (UniProt O95398); test: Confirmatory qHTS for antagonist of cAMP-regulated guanine nucleotide exchange factor 3 (EPAC1) (AID 1645880); details: EPAC1 Rap1B-BODIPY-GDP exchange, fluorescence; activity, negative = inhibition: at 115 µM (top of the series); also: nearly all actives have a fitted effect of over 55% in size; also: potency is read from the fitted curve at half-maximal effect;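 as to activity, negative = inhibition: plate controls were DMSO only for no effect and full effect of the ATA control for full effect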
UniProt O95398, sequence (O95398 whole entry, looked up): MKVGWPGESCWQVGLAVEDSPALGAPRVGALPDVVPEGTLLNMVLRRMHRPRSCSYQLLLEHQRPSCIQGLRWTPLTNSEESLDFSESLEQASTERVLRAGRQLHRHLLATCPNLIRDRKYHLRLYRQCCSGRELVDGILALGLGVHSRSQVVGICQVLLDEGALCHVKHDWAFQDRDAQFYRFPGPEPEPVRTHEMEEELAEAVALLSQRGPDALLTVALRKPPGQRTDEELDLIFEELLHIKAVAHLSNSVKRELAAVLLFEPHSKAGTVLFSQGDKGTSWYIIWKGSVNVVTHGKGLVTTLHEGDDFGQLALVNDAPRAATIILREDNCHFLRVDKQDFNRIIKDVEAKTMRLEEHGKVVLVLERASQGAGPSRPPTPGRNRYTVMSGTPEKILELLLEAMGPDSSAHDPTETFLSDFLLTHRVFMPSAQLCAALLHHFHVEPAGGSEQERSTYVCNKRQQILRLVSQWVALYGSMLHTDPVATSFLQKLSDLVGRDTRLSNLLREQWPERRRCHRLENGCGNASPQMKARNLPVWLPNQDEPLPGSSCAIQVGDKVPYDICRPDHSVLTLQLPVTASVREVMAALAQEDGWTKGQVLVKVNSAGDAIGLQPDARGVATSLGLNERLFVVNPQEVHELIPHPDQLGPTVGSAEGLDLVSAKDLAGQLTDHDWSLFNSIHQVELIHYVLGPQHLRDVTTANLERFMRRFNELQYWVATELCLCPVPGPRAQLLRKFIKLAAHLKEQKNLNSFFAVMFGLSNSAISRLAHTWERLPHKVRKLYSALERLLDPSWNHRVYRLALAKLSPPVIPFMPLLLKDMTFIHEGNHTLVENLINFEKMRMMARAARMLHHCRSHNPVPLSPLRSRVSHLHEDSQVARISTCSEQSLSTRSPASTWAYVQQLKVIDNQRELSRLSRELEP
Outline: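 Nucleotide exchange uses 100 nM EPAC1, 250 nM RAP1B-BODIPY-GDP and 50 uM GDP, with compounds in a concentration-titration series. After 5 min at room temperature, fluorescence (480 nm ex/540 nm em) is read every 5 min for 30 min. Data are normalized to control ATA and DMSO.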

[6] = molecular target: Rap guanine nucleotide exchange factor 3 (Homo sapiens) (UniProt O95398); test: Counterscreen qHTS for agonist of cAMP-regulated guanine nucleotide exchange factor 3 (EPAC1) (AID 1645889); details: EPAC1 Rap1B-BODIPY-GDP exchange, fluorescence; activation: at 154 µM (top of the series) unless noted; also: nearly all actives have a fitted effect of over 40% in size; also: potency is read from the fitted curve at half-maximal effect; as to activation: % of control where 0% means no effect
Outline: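 Rap1B–BODIPY-GDP (250 nM) with 50 uM GDP; compounds pin-transferred to 9.74 nM–152 uM final (activator) or from 7.32 nM upwards (inhibitor). Fluorescence Ex/Em 480/540 nm read at 5 and 30 min, then after adding cAMP or buffer, at room temperature.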

[7] = molecular target: Tumor susceptibility gene 101 protein (Homo sapiens) (UniProt Q99816); test: qHTS Assay for Iinhibitors of HIV-1 Budding by Blocking the Interaction of PTAP/TSG101: Hit Validation (AID 651600); details: PTAP peptide/TSG101 UEV interaction, biochemical assay; series mostly up to 57.5 µM; also: potency is read from the fitted curve at half-maximal effect; nearly all actives have a fitted effect of over 70% in size
UniProt Q99816, sequence (Q99816 whole entry, looked up, the tested form may be a part): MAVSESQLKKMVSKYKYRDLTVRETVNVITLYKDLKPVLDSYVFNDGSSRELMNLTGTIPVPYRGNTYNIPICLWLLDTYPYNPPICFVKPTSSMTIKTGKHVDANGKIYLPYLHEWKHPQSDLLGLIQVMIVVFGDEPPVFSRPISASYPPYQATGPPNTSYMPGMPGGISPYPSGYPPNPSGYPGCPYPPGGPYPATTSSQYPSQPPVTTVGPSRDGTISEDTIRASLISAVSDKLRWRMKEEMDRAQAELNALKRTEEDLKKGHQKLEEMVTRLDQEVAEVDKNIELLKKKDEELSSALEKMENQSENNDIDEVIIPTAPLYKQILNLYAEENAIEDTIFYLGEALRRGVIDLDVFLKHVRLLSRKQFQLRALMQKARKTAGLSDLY
Outline: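 Fluorescence polarization binding assay: Tsg101 binding domain (10 uM) mixed with compounds and FITC-labeled PTAP peptide (50 nM) in HEPES pH 7.5, 0.15 M NaCl, 0.01% Tween 20, EDTA, TCEP; 20 min at r.t.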

[8] = molecular target: Phosphoglycerate kinase, glycosomal (Trypanosoma brucei brucei) (UniProt P07378); test: qHTS for inhibitors of Phosphogylcerate Kinase: Hit Validation Screen (AID 686980); details: TbPGK coupled GAPDH assay, Kinase-Glo luminescence; series mostly up to 57.5 µM; also: potency is read from the fitted curve at half-maximal effect; nearly all actives have a fitted effect of over 65% in size
UniProt P07378, sequence (P07378 whole entry, looked up): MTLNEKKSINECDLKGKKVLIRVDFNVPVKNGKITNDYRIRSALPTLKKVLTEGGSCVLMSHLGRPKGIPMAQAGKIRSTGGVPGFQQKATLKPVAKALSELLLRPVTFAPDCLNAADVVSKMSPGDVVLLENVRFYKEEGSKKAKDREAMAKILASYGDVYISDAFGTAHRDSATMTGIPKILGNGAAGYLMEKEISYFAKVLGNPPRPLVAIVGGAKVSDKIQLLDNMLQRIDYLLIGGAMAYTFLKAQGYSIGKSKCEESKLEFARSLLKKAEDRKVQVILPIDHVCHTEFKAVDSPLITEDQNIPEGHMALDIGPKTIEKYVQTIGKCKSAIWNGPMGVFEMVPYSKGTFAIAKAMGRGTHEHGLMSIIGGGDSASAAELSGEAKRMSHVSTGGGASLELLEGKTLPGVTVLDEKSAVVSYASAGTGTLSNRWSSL
Outline: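 Luminescent ATP detection (Kinase-Glo Plus) follows a 60-minute room-temperature incubation, with wells lacking PGK as controls. Buffer: 100 mM TEA (pH 7.6), 5 mM MgCl2, 0.01% Tween-20. Coupling enzyme GAPDH (100 nM final) supplies unstable 1,3-BPG in-well.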

[9] = molecular target: ATPase family AAA domain-containing protein 5 (Homo sapiens) (UniProt Q96QE3); test: qHTS screen for small molecules that inhibit ELG1-dependent DNA repair in human embryonic kidney (HEK293T) cells expressing luciferase-tagged ELG1: Hit Confirmation using MMS Stimulated ELG1 (AID 624249); details: HEK293T luciferase-tagged ELG1 level; also: potency is read from the fitted curve at half-maximal effect; nearly all actives have a fitted effect of over 60% in size
Outline: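 HEK293T cells carrying ELG1-luciferase, compounds added about 5 h after plating together with MMS at 10 µM final. Luciferase activity read 16 h after compound addition; suppression of signal scored.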

[10] = qHTS screen for small molecules that inhibit ELG1-dependent DNA repair: Hit Confirmation with 5FU Viability (AID 624250); details: cell viability with 5-FU; series mostly up to 46.1 µM; also: potency is read from the fitted curve at half-maximal effect
Outline: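 Steps: seed ELG1-luciferase HEK293T cells; after roughly 5 h, pin in compounds and dispense 5-fluorouridine to 10 µM final; incubate 16 h; measure viability with CellTiter-Glo.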

[11] = qHTS screen for small molecules that inhibit ELG1-dependent DNA repair: Hit Confirmation with MMS Viability (AID 624251); details: Cell viability with MMS; also: potency is read from the fitted curve at half-maximal effect; nearly all actives have a fitted effect of over 60% in size
Outline: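 ELG1-luc HEK293T cells, 2,000/well, given compounds about 5 h after plating together with MMS at 10 µM final; viability measured by CellTiter-Glo after 16 h.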

[12] = molecular target: DNA polymerase iota (Homo sapiens) (UniProt Q9UNA4); test: qHTS for Inhibitors of Polymerase Iota: Confirmatory Assay for Cherry-picked Compounds (AID 720496); details: Pol iota primer extension, TAMRA/BHQ fluorescence; also: potency is read from the fitted curve at half-maximal effect
UniProt Q9UNA4, sequence (Q9UNA4 whole entry, looked up): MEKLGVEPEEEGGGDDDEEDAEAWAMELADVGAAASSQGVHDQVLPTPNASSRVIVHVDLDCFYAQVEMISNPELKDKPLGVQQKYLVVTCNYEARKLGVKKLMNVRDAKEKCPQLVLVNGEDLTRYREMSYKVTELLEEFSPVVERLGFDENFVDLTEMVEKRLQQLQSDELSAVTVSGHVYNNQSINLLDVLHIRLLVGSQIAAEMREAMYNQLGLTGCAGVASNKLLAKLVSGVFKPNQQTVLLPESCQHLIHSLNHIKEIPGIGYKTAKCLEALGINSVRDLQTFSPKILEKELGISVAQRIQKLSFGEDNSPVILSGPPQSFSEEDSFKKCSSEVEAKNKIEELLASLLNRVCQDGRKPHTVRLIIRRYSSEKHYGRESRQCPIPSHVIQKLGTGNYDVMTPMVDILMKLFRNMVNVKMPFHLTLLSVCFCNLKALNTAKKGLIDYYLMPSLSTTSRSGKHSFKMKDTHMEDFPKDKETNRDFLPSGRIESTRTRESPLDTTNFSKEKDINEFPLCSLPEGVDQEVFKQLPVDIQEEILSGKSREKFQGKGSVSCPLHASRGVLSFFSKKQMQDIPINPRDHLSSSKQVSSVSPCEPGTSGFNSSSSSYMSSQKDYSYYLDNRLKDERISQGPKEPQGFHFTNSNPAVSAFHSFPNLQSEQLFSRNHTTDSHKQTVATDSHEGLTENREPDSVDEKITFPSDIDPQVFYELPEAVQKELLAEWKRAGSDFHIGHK
Outline: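 Read-out is TAMRA fluorescence (525 nm excitation, 598 nm emission) at 0 and 10 min. It reflects strand displacement from a BHQ-2-quenched template by 10 nM Pol iota, with 50 nM final substrate after 15 min compound preincubation.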

[13] = molecular target: DNA polymerase eta (Homo sapiens) (UniProt Q9Y253); test: qHTS for Inhibitors of Polymerase Eta: Confirmatory Assay for Cherry-picked Compounds (AID 720502); details: Pol eta primer extension, TAMRA/BHQ fluorescence, 10 min; also: potency is read from the fitted curve at half-maximal effect
UniProt Q9Y253, sequence (Q9Y253 whole entry, looked up): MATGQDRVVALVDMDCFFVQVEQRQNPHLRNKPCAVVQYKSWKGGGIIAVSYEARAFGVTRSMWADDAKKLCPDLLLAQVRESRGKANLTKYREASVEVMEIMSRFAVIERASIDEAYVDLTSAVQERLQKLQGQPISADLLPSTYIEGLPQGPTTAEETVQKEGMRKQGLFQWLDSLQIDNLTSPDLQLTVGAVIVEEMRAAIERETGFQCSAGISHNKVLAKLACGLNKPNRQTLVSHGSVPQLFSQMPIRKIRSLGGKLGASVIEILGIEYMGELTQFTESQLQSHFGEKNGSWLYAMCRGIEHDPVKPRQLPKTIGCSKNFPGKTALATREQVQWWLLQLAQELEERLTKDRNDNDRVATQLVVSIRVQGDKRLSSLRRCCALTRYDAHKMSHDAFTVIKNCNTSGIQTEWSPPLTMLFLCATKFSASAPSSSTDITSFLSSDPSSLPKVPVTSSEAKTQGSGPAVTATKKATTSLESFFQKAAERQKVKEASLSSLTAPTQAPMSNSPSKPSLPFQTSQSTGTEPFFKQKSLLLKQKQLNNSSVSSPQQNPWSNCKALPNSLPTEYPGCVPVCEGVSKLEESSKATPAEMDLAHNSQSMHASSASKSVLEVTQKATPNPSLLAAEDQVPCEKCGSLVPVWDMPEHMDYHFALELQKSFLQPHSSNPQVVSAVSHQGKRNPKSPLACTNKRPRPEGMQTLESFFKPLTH
Outline: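 Enzyme at 10 nM is mixed with pin-transferred compound and left 15 min at room temperature. Substrate (50 nM final) is then added, and plates are read at 0 min and after 10 min.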

[14] = qHTS Assay for the Inhibitors of L3MBTL1: Hit Validationin AlphaScreen Counterscreen (AID 602224); details: signal inhibition; series mostly up to 57.1 µM; also: 0% is about no effect
Outline: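 Bead-bridging control using 1 nM b-His6 linking streptavidin donor and nickel chelate acceptor beads (10 ug/mL each, final). Compound exposure 15 min, then beads, 30 min dark incubation at room temperature before AlphaScreen reading.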

[15] = molecular target: Bifunctional 3'-5' exonuclease/ATP-dependent helicase WRN (Homo sapiens) (UniProt Q14191); test: qHTS for Inhibitors of WRN Helicase: Confirmatory Assay for Cherry-picked Compounds. (AID 720497); details: WRN helicase DNA unwinding, fluorescence kinetic; series mostly up to 57.1 µM; also: potency is read from the fitted curve at half-maximal effect; nearly all actives have a fitted effect of over 65% in size
UniProt Q14191, sequence (Q14191 whole entry, looked up): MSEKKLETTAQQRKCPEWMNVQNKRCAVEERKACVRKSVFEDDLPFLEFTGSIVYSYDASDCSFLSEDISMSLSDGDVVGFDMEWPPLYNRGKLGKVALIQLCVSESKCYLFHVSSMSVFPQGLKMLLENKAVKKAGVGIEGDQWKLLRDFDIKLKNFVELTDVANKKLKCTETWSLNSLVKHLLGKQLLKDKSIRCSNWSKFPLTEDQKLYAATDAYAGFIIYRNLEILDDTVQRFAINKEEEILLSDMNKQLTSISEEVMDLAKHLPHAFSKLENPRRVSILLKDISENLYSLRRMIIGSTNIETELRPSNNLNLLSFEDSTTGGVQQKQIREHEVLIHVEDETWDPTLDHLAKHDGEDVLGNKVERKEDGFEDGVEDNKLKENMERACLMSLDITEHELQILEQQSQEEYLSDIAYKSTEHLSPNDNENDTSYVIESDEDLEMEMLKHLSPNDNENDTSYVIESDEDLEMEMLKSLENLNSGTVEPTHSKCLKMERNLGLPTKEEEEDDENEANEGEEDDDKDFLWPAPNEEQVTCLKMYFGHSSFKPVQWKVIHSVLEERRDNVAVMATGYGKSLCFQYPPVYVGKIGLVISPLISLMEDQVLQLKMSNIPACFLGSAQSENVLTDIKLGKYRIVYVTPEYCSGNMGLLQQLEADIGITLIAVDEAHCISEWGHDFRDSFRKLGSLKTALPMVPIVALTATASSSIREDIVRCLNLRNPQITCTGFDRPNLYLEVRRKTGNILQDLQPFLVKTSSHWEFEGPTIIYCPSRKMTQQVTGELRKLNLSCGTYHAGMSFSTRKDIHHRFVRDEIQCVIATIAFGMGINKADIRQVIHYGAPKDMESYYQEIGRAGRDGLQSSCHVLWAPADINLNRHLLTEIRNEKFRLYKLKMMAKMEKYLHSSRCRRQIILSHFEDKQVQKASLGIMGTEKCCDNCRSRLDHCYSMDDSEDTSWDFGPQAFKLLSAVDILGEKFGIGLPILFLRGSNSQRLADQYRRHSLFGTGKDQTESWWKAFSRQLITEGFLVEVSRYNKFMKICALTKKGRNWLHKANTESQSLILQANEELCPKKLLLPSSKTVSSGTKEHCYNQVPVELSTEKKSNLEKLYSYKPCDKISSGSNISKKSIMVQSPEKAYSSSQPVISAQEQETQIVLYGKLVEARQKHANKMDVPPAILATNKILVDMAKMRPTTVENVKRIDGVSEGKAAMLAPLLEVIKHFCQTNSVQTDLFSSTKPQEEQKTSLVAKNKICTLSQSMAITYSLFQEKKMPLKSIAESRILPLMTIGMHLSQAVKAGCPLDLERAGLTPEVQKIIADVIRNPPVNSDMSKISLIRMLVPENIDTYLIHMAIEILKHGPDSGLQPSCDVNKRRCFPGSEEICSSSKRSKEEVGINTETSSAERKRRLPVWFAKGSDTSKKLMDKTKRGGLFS
Outline: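 WRN (20 nM) was preincubated 15 min at RT with compound, then started with 100 nM forked duplex oligonucleotide and 2 mM ATP. Unwinding was read kinetically by red fluorescence (ex 525/em 598 nm), normalized to enzyme-free and uninhibited controls.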

[16] = molecular target: RecQ-like DNA helicase BLM (Homo sapiens) (UniProt P54132); test: qHTS for Inhibitors of WRN Helicase: BLM Helicase Counterscreen for WRN Inhibitors (AID 720503); details: Recombinant BLM helicase DNA unwinding, red fluorescence; series mostly up to 57.1 µM; also: potency is read from the fitted curve at half-maximal effect; nearly all actives have a fitted effect of over 60% in size
Outline: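 Steps: compounds added to 1 nM BLM in pH 8.0 Tris buffer with 2 mM MgCl2; 15 min room-temperature incubation; substrates added (100 nM DNA, 2 mM ATP final); discontinuous kinetic fluorescence measurement, reads spaced 15 min.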
Tags tell the direction and shape of the fitted curve.

With Nc1ccc2c(c1)C(=O)C(=O)c1ccccc1-2 the Potency [1] was inconclusive [inhibitor, single point], the Potency [2] was active: 4.11 µM and the Potency [3] was active: 2.91 µM. For the same compound, the Potency [4] was inconclusive [inhibitor, single point], the Potency [5] was inconclusive [inhibitor, full curve] and the Potency [6] was inconclusive [activator, full curve, poor fit].
For Cc1c2cc(O)c(=O)cc-2oc2cc(O)c(O)cc12, the Potency [7] was active: 1.83 µM, the Potency [5] was inconclusive [inhibitor, partial curve, poor fit] and the activation [6] was inactive: 0.526% [at 30.8 µM].
In the case of CCCOc1ccc(/C=C2/C(=O)ON=C2C)cc1Cl, the Potency [1] is reported as inconclusive [inhibitor, full curve, poor fit], the Potency [5] is reported as inconclusive [inhibitor, partial curve] and the Potency [6] is reported as inconclusive [activator, partial curve].
In the case of CCOc1ccc(/C=C/C(=O)c2cc(Br)ccc(=O)c2O)cc1, the Potency [1] is reported as inconclusive [inhibitor, full curve], the Potency [2] is reported as “inactive” and the Potency [3] is reported as “inactive”. For the same compound, the Potency [5] was active: 33.8 µM and the Potency [6] was “inactive”.
For CCOC(=O)COc1ccc(Br)cc1/C=C\c1[nH]c(=O)[nH]c(=O)c1[N+](=O)[O-], the Potency [1] was inconclusive [inhibitor, partial curve, poor fit], the Potency [2] was inconclusive [inhibitor, single point] and the Potency [3] was inconclusive [rising, full curve, poor fit]. For the same compound, the Potency [5] was active: 20 µM and the Potency [6] was inconclusive [activator, full curve, poor fit].
In the case of CCN1/C(=C/C(C)=C/c2sc3ccccc3[n+]2CC)Sc2ccccc21, the Potency [8] is reported as inconclusive [inhibitor, partial curve], the Potency [5] is reported as active: 50.1 µM and the activation [6] is reported as inactive: 12.5% [at 30.8 µM].
With COc1ccc(-c2cc(C(F)F)n3ncc(C(=O)N4CCc5ccccc54)c3n2)cc1 the Potency [9] was inconclusive [inhibitor, partial curve], the Potency [10] was inconclusive [rising, partial curve, poor fit] and the Potency [11] was inconclusive [cytotoxic, partial curve, poor fit]. The Potency [5] was “inactive” and the Potency [6] was inconclusive [activator, full curve, poor fit].
With COc1ccc(-c2cc(C(F)(F)F)c3c(n2)sc2c(O)cc(=O)[nH]c23)c(OC)c1 the Potency [12] was active: 67 µM, the Potency [13] was active: 67.5 µM and the Potency [5] was inconclusive [inhibitor, partial curve]. The Potency [6] was inconclusive [activator, full curve, poor fit].
In the case of CC1CCCN(c2nc3ccccc3nc2C(C#N)S(=O)(=O)c2ccccc2)C1 (stereo not given), the Potency [7] is reported as inconclusive [inhibitor, partial curve], the Potency [5] is reported as inconclusive [inhibitor, partial curve, poor fit] and the Potency [6] is reported as active: 22.4 µM.
For O=C(O)c1ccc(/C=N/NC(=O)c2cc(-c3ccc4c5c(cccc35)CC4)n[nH]2)cc1, the Potency [12] was active: 59.7 µM, the Potency [5] was inconclusive [inhibitor, partial curve] and the activation [6] was inconclusive: 42.2% [activator].
With CCc1nnc(NS(=O)(=O)c2ccc(N/C=C\C(=O)c3ccc4ccccc4c3)cc2)s1 the Potency [12] was inconclusive [inhibitor, single point], the Potency [5] was inconclusive [inhibitor, partial curve, poor fit] and the activation [6] was inactive: 3.82% [at 30.8 µM].
For Cc1ccc(-c2nc3c(c(=O)[nH]c(=O)n3Cc3ccccc3)n2C)o1, the Potency [14] was “inactive”, the Potency [12] was inconclusive [inhibitor, partial curve] and the Potency [5] was inconclusive [inhibitor, partial curve]. The Potency [6] was inconclusive [activator, full curve, poor fit].
In the case of O=C(O)c1ccc(/C=N/NC(=O)c2ccc(CN3c4cccc5cccc(c45)S3(=O)=O)cc2)cc1, the Potency [12] is reported as inconclusive [inhibitor, single point], the Potency [5] is reported as active: 44.7 µM and the activation [6] is reported as inactive: 13.7% [at 30.8 µM].
For Cc1nnc(Sc2cc(NCCCO)c([N+](=O)[O-])c3nonc23)s1, the Potency [1] was inconclusive [inhibitor, full curve, poor fit], the Potency [2] was inconclusive [inhibitor, single point] and the Potency [3] was inconclusive [cytotoxic, single point]. The Potency [15] was inconclusive [inhibitor, partial curve], the Potency [16] was inconclusive [inhibitor, partial curve, poor fit] and the Potency [5] was inconclusive [inhibitor, partial curve, poor fit]. The Potency [6] was active: 8.91 µM.
With Cn1c(=O)c2nc3ccc(NC(=O)C(F)(F)F)cc3nc2n(C)c1=O the Potency [7] was inconclusive [inhibitor, full curve], the Potency [5] was active: 84.9 µM and the Potency [6] was “inactive”.
